Among the data in article PMC7501296, “Rapid and direct control of target protein levels with VHL-recruiting dTAG molecules” (Nature Communications, 2020) are DMSO-normalized antiproliferation values, retold here.

Assay [1] has as its system PATU-8902 FKBP12^F36V-KRAS^G12V; KRAS^-/- clone. Description: Antiproliferation, PATU-8902 FKBP12F36V-KRASG12V; KRAS-/- clone, 3D-spheroid (CellTiter-Glo). Format: cell-based. The note with it: 120 h. Here is the method: (§1) Cell viability was assayed in 2D-adherent or ultra-low adherent 3D-spheroids using CellTiter-Glo (Promega)[6],[15]. Luminescence was measured on an Envision 2104 plate reader (PerkinElmer) and Fluostar Omega Reader (BMG Labtech) and data was analyzed using GraphPad PRISM v8. Synergy assessments were performed using CellTiter-Glo (Promega) with the following modifications to the protocol described in the ref. [34]. In brief, EWS502 cells were plated at 1000 cells per well in 50 µL of appropriate media in 384-well white culture plates (Corning) allowed to adhere overnight, and 100 nL of compounds were added using a Janus Workstation pin tool (PerkinElmer) for 72 h. Cell viability was measured by addition of 10 µL of CellTiter-glo (Promega), followed by incubation for 15 minutes at room temperature. Luminescence was measured on an Envision 2104 plate reader (PerkinElmer) and data was analyzed using GraphPad PRISM v8.

Assay [2] has as its system PATU-8902 LACZ-FKBP12^F36V clone. Description: Antiproliferation, PATU-8902 LACZ-FKBP12F36V clone, 2D-monolayer (CellTiter-Glo). Format: cell-based. On the procedure:
as §1
A general note: In ATP-based viability assays light output follows the ATP content of the culture.

Several values for one entry are separate records, joined by “and”; a condition that tells them apart may be missing. Equal values may be shown once. The source gives many values for each of these; only a part stands here.

In the case of `CC[C@H](C(=O)N1CCCC[C@H]1C(=O)O[C@H](CCc1ccc(OC)c(OC)c1)c1ccccc1OCC(=O)NCCCCCCC(=O)N[C@H](C(=O)N1C[C@H](O)C[C@H]1C(=O)N[C@@H](C)c1ccc(-c2scnc2C)cc1)C(C)(C)C)c1cc(OC)c(OC)c(OC)c1` [dTAG^V-1], the DMSO-normalized antiproliferation in assay [1] (log10[compound] (M) -8.19897, single replicates) was 30.0314 and 28.6949 and 32.4036 and 30.2152; in assay [1] (log10[compound] (M) -8.69897, single replicates), 52.8515 and 46.5534 and 59.2387 and 51.9382; in assay [1] (log10[compound] (M) -9.19897, single replicates), 73.4831 and 72.2079 and 84.3419 and 73.5221; in assay [1] (log10[compound] (M) -9.69897, single replicates), 99.984 and 76.802 and 106.171 and 79.0127; in assay [1] (log10[compound] (M) -10.199, single replicates) it was 80.9506 and 84.0022 and 96.4313 and 99.1933; in assay [2] (log10[compound] (M) -4.69897), 85.1577 and 72.2366 and 82.9443 and 78.0836. The DMSO-normalized antiproliferation was 77.9567 and 74.0308 and 77.4261 and 81.3624 in assay [2] (log10[compound] (M) -5.19897); 92.4692 and 73.6669 and 88.5961 and 75.9217 in assay [2] (log10[compound] (M) -5.69897); 97.7261 and 86.0485 and 91.3233 and 76.0541 in assay [2] (log10[compound] (M) -6.19897); 90.8848 and 75.3731 and 80.2124 and 77.2292 in assay [2] (log10[compound] (M) -9.19897).
